The text below walks through data of the supplement of paper PMC10338343.

± gives the standard deviation. The full ranking holds about 5,500 sequences; the median of “pre-steady-state target cleavage rate” is about 0.1, and the highest 2% start at about 0.64. The list shows a part of the results, in another mix than the full data.

This experiment deals with MIWI (PIWIL1) piRISC loaded with piRNA #2 (30 nt). As to the kind of experiment: pre-steady-state target cleavage rate (min^-1); MIWI and MILI are mouse PIWI proteins and EfPiwi is from a freshwater sponge; tags in brackets are library labels; higher = faster piRNA-guided slicing of the target. Particulars: guide: piRNA #2 5'p-UUAGGUAACCCAGUAGAUCCAGAGGAAUUC; auxiliary factor: 500 nM mouse GTSF1. The essentials: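 The method was Cleave-'n-Seq, in which uncleaved targets from a transcribed, DNA-blocked target RNA library were sequenced after exposure to active affinity-purified piRISC carrying one synthetic guide, with or without GTSF1 partner protein. Reactions contained 0.1 nM library, 1 nM piRISC and, where present, 500 nM GTSF1 in HEPES–potassium acetate buffer at 33 °C for 0–8 or 0–960 min. Reads were normalised to depth and to weakly complementary targets, three trials were pooled, and k3 was capped at 0.0001 min^-1. The pre-steady-state cleavage rate came from a burst-and-steady-state fit.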
For the sequence CUAUUCCUCUGGAUCUACGGGUUACCUAA, the “pre-steady-state target cleavage rate” value was found to be 0.062 ± 0.012. For CAAUUCCUCUGCAUCUACUCGGUUACCUAA the value was 0.0982 ± 0.015.

In the case of CAAUUCCUCUGGAUCUACUCGCUUACCUAA, the “pre-steady-state target cleavage rate” value worked out at 0.00431 ± 0.0041. As for CUUAUCCUCUGCAUCUUCUGGGUUACCUAA, the figure is 0.194 ± 0.017. On to CUUAAGGAGAGCUACUACUGGGUUACCUAA, for which the “pre-steady-state target cleavage rate” value amounted to 0.00344 ± 0.0021. For CUUAACCUCUGGAUCUACUGGGUGACCUAA the value was 0.145 ± 0.014; for CAAUUCCUCUGGAUCUACUCGGUUACCAAA, 0.0973 ± 0.039. As for CUUAAGGACUGGAUCUACUGGGUUACGAUA, the figure is 0.0332 ± 0.027; as for CUAUUCCUCUGGAAUCUACUGGGUUACCUAA, 0.387 ± 0.046; as for CUUAACCGUCUGGAUCUACUGGGUUACCUAA, 0.271 ± 0.03. As for CUUAUCCUCUGGAUCUACAGGCUUACCUAA, the figure is 0.028 ± 0.0083. For the sequence CUUAAGCUCUGGAUCUACUGGGUGUACCUAA, the “pre-steady-state target cleavage rate” value is 0.0559 ± 0.012.

As to CUAUUCCUCUGGAUCUAGUGGGUUACGUAA, the “pre-steady-state target cleavage rate” value came to 0.211 ± 0.03. As for CUUAUCCUCUGGAUCUACUCGGUUACCUAA, the figure is 0.0981 ± 0.018.

As to GAAUUCCUCUGGAUCUACUGUGUUACCUAA, the “pre-steady-state target cleavage rate” value is 0.673 ± 0.06. For CUUUUCGUCUGGAUCUACUGGGUUACCUUA the value was 0.261 ± 0.042; for CUUAAGGUCUGGAUCUACUCGGUUACCAAA, 0.011 ± 0.0098; for CAUUUCCUCUGGAUCUACUGGGUUACCUAA, 0.541 ± 0.059. For CUUAAGGUCUGGAUCUACUGGGAUUACCUAA the value was 0.0268 ± 0.0077; for CUAUUCGUGUGGAUCUACUGGGUUACCUAA, 0.405 ± 0.033. For CUUAUCCACUGGAUCAACUGGGUUACCUAA the value was 0.414 ± 0.043; for CUUAAGCUGUGGAUCAACUGGGUUACCUAA, 0.142 ± 0.034. Consider CUUAUCCUCUGGAUCUACUGCCUUACCUAA, for which the “pre-steady-state target cleavage rate” value is 0.086 ± 0.019. Consider CUAUUGCUCUGGAUCUACUGGCUUACCUAA, for which the “pre-steady-state target cleavage rate” value was 0.062 ± 0.012. As for CUUAUCCUCUGGAUCUACUGGGUUUCCUUA, the figure is 0.252 ± 0.071; as for CUUAACCUGUGCAUCUACUGGGUUACCUAA, 0.236 ± 0.022. As for CUUAUCCUUGGAUCUACUGGGUUACCUAA, the figure is 0.42 ± 0.029; as for CUUAACCUCUGGAUCUACUGGGUUACGUAA, 0.509 ± 0.031.

Regarding CUUAACCUCUGGUUCUACUGGGUUACCUAA, the “pre-steady-state target cleavage rate” value stood at 0.479 ± 0.042.

With CUUUUCCUCUGGAUCUACUCGGUUACCUAA, the “pre-steady-state target cleavage rate” value turned out to be 0.104 ± 0.015.

Regarding GAUUUGCUCUGGAUCUACUGGGUUACCUAA, the “pre-steady-state target cleavage rate” value amounted to 0.071 ± 0.021. As for GUUUUCCUCUGGAUCUACUGGGUUACCUAA, the figure is 0.0626 ± 0.026; as for CUUAUCCUCAGGAUCUACUGCGUUACCUAA, 0.573 ± 0.075; as for CAAUUCCUCAGGAUCUACAGGGUUACCUAA, 0.335 ± 0.026. As for CUUUUCCUCUGGAUCUACUCGGAUACCUAA, the “pre-steady-state target cleavage rate” value is 0.0163 ± 0.0085. Consider CUUAUCCUCUCGGAUCUACUGGGUUACCUAA, for which the “pre-steady-state target cleavage rate” value turned out to be 0.484 ± 0.074. As for CAAUUCCUCUGGUACUACUGGGUUACCUAA, the figure is 0.504 ± 0.07; as for CUAUUCCUCUGGAUGUACUGCGUUACCUAA, 0.507 ± 0.071. As for CUUAAGGAGAGGAUCUACUGGGUUACCCUAA, the figure is 0.00802 ± 0.0041. As for CUUUUCCUCUCCUUCUACUGGGUUACCUAA, the figure is 0.494 ± 0.043.

Regarding CUUAUCCACUGGAUCUACUGGGAUACCUAA, the “pre-steady-state target cleavage rate” value was determined as 0.387 ± 0.044. For CAAAUCCUCUGGAUCUACUGGGUUACCUAA the value was 0.47 ± 0.069. With CUUAAGCUCUCGAUCUUCUGGGUUACCUAA, the “pre-steady-state target cleavage rate” value came out at 0.461 ± 0.048.

Consider CUUAAGGUCUGGUUCUACUGGGUUACCAAA, for which the “pre-steady-state target cleavage rate” value turned out to be 0.0505 ± 0.013. Regarding CUUAAGGAGUGGAUCUACUGGGUUAGCCUAA, the “pre-steady-state target cleavage rate” value was found to be 0.0298 ± 0.01. As for CUUAACCUCUGGAUCUACUGGGAUUCCUAA, the figure is 0.0311 ± 0.011. In the case of CUUAACCUCUGCAUCUUCUGGGUUACCUAA, the “pre-steady-state target cleavage rate” value was found to be 0.219 ± 0.019. For CUUUUCCUCUGGAUCUACUGGGGUUACCUAA the value was 0.0416 ± 0.011. As for CAAUUCCUCUGGAUCUAUUGGGUUACCUAA, the figure is 0.381 ± 0.052; as for CUUAAGGACUGGAUCUACUGGGUUAUCUAA, 0.1 ± 0.052. As for CUAUUCCUCUGGACUACUGGGUUACCUAA, the figure is 0.263 ± 0.037; as for GAAAUCCUCUGGAUCUACUGGGUUACGUAA, 0.532 ± 0.058. Consider CUUAAGGAGAGGAUCUACUAGGUUACCUAA, for which the “pre-steady-state target cleavage rate” value was 0.00547 ± 0.0027. As for CUUUUCCUGUGGAUCUACUGGGUUACGUAA, the figure is 0.549 ± 0.05; as for CUAAUCCUCUGGAUCUACUGGGUUACCAAA, 0.506 ± 0.056; as for CUUAAGGUCUGGUUCUACUGCGUUACCUAA, 0.189 ± 0.048. Take CUUUUCCUCAGGAUGUACUGGGUUACCUAA: the “pre-steady-state target cleavage rate” value was 0.468 ± 0.059. As for CAAUUCCUCUGCAUGUACUGGGUUACCUAA, the figure is 0.526 ± 0.038. As for GAAUUCCUCUGGAUCUACUGGGUUACACUAA, the figure is 0.631 ± 0.068.

Take CAAUCCUCUGGAUCUACUGGGUUACCUAA: the “pre-steady-state target cleavage rate” value stood at 0.449 ± 0.075. As for CUAUUCCUCUGGAUCUACUGGGUUACUCUAA, the figure is 0.2 ± 0.031. As for CAAAUCCUCAGGAUCUACUGGGUUACCUAA, the figure is 0.754 ± 0.059; as for CUUAAGGAGACCUACUACUGCGAUACCUAA, 0.00266 ± 0.0023; as for CUUUUCCUCUGGAUCUACUGGGUUAGGUAA, 0.0815 ± 0.019.

Consider CUAUUCCUGUGGUUCUACUGGGUUACCUAA, for which the “pre-steady-state target cleavage rate” value is 0.281 ± 0.022. For CUUAAGGUCUGGAUCUACUGGGUUACCUGA the value was 0.0684 ± 0.015; for CUAUUCCUCUGGAUCUACUGGGUUAGCUAA, 0.349 ± 0.061; for CUAUUCCUCUGGAUCUACUGGGUUACACUAA, 0.636 ± 0.073.

For GAAUUCCUCUGGAUGUACUGGGUUAGCUAA, the “pre-steady-state target cleavage rate” value was 0.43 ± 0.062. For CUUUUCCUCUGGAUCAACUGGGUUACGUAA the value was 0.496 ± 0.045; for CUUAAGCUCAGGAUCUUCUGGGUUACCUAA, 0.141 ± 0.023; for CUUAAGGUCAGGAUCUACUGGGUAACCUAA, 0.00869 ± 0.0069. For CUUAAGCUCUGGAUCUACUGGGUUACCAUAA the value was 0.163 ± 0.023. As to CUUAAGGUCUGGAUCUACUGGGGUUACCUAA, the “pre-steady-state target cleavage rate” value amounted to 0.00828 ± 0.003. For CUUAUCCUCUGCAUCUACUGGGUUACCAAA the value was 0.223 ± 0.04; for CUUAAGGUGUGGAUCUACUGGGUUAGCUAA, 0.0221 ± 0.011; for GAAUUCCACUGGAUCUACUGGGUUAGCUAA, 0.668 ± 0.12. For CUUAAGGUGUGCAUCUACUGGGUUACCUAA the value was 0.00997 ± 0.0038; for CUUAAGGACUGGAUCUUCUGGGUUACGUAA, 0.173 ± 0.066; for CUUUUCCACUGGAUCUACUCGGUUACCUAA, 0.083 ± 0.013.

Take CUUAAGGACUGGUUCUACUGGGUUACCUAA: the “pre-steady-state target cleavage rate” value came out at 0.0936 ± 0.042.

As for CAAUUCCUCUGGAUCUACUGGGUUUCCAAA, the “pre-steady-state target cleavage rate” value stood at 0.179 ± 0.051.

As to CUUAAGGAGAGGAUCUACUGGGUUACCAUA, the “pre-steady-state target cleavage rate” value was found to be 0.00556 ± 0.0043. For CUUAACCUCUGGAUCUUCUGGGUUAGCUAA the value was 0.0483 ± 0.011; for GAAUUCCUCUGGAUCUAUUGGGUUACCUAA, 0.177 ± 0.03.

On to CUUAAGGAGUGCAUCUACUGGGUUACCUAA, for which the “pre-steady-state target cleavage rate” value is 0.00703 ± 0.0036. With CAAUUCGUCUGGAUCUACAGGGUUACCUAA, the “pre-steady-state target cleavage rate” value was 0.169 ± 0.016.

In the case of CUUUUCCUCUGGAUCUACUGGGUUACUUAA, the “pre-steady-state target cleavage rate” value worked out at 0.583 ± 0.057. For CUUAUCCUCAGGAUCUACUGGGUUACCUUA the value was 0.429 ± 0.069; for CUUAUCCUCUGGUCUACUGGGUUACCUAA, 0.149 ± 0.04.

As for GAAUUCCUCUGGUAGUACUGGGUUACCUAA, the “pre-steady-state target cleavage rate” value is 0.288 ± 0.044. For CUUAACCUCUGGAUGUACUGCGUUACCUAA the value was 0.559 ± 0.056.
